# Data taken from PMC4336329 (PLoS ONE, 2015).
# Hit rate of the full screen: of about 310,000 compounds, about 14,000 (4.5%) showed an effect of 50% or more. The effect is printed as a negative number. Some of the results follow.
# Molecular target: human ether-à-go-go-related gene (hERG) potassium channel (human, UniProt Q12809)
# Test: primary screen, population patch clamp on CHO cells stably expressing hERG
# 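Also: peak tail current of the secondary pulse compared with the same well before compound.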
# human ether-à-go-go-related gene (hERG) potassium channel, sequence (Q12809 whole entry, looked up): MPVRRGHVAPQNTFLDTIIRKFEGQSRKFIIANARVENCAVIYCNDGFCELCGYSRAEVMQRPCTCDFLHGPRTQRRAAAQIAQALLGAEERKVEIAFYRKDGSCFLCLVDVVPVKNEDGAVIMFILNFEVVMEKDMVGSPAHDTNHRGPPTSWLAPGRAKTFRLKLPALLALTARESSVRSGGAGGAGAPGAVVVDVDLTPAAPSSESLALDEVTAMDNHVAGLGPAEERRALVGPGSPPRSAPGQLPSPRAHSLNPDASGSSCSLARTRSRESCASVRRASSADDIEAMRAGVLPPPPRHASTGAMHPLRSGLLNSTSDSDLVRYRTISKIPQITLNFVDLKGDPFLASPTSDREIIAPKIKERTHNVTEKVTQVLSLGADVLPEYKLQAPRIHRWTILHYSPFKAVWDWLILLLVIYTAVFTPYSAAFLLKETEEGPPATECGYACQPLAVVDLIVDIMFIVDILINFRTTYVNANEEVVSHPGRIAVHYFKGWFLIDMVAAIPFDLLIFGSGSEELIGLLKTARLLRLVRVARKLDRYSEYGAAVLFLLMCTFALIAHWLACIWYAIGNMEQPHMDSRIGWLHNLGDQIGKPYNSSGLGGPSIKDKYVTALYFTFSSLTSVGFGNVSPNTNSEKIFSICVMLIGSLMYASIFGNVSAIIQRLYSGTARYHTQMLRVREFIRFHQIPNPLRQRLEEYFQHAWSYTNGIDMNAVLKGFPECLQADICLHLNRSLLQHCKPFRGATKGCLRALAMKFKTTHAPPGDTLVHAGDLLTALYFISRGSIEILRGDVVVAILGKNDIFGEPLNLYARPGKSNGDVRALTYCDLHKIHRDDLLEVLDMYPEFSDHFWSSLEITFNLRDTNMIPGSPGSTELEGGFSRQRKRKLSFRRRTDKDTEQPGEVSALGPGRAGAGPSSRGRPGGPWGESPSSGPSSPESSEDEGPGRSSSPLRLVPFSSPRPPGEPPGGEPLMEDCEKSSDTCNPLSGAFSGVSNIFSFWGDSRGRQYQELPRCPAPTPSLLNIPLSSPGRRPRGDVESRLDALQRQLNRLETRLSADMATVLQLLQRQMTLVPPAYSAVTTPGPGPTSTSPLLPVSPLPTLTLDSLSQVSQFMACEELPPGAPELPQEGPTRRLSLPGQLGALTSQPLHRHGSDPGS
row,Compound,"hERG current change (%, negative = inhibition) at 10uM [%]"
1,Cc1ccc(S(=O)(=O)n2cnc3ccccc32)c(C)c1,-4.8
2,CC(=O)c1c(C)[nH]c(C(=O)Nc2nccs2)c1C,-4.05
3,Cc1cccc(NC(=O)CCCc2ccccc2)c1C,6.64
4,O=c1[nH]c(Cc2ccccn2)nc2scc(-c3ccc(Cl)cc3)c12,-3.78
5,Cc1nn(-c2ccccc2)c2c1CC1(C(=O)N(C)C(=O)N(C)C1=O)C1CCCCN21 (centres unmarked),18.8
6,Cc1c(C#N)c(SCC(N)=O)nc2c1CCCC2,-3.9
7,CCS(=O)(=O)N1CCN(CC2CC3C=CC2C3)CC1 (centres unmarked),19.1
8,O=C(CSc1nnc(NC(=O)C2CC(=O)N(c3ccccc3)C2)s1)NC1CCCC1 (centres unmarked),9.31
9,COc1ccc(C(=O)N2CCN(C(=O)c3ccc(-c4ccccc4)cc3)CC2)cc1OC,-43.6
10,C=C(C)C(=O)Nc1cccc(C2=NOC3(C2)C[C@H](C(N)=O)N(C(=O)/C=C/C)C3)c1 (some centres unmarked),3.83
11,NS(=O)(=O)c1ccc(CCNC(=O)CNC(=O)C2CCCCC2)cc1,7.84
12,CCCCn1c(-c2csc(CC)c2)n[nH]c1=S,11.5
13,Cn1c(SCC(=O)NCc2ccccc2)nc2c([nH]c3ccccc32)c1=O,8.94
14,O=C(O)C1CCN(Cc2cnn(-c3ccccc3)c2-n2cccc2)CC1,-21
15,COc1ccc(CCNC(=O)C2CC(c3ccccc3[N+](=O)[O-])=NO2)cc1 (centres unmarked),-2.82
16,CCc1cccc2sc(N3CCN(C(=O)c4ccc([N+](=O)[O-])o4)CC3)nc12,-44.9
17,CNC(=O)C(Sc1ccccc1)c1ccccc1 (centres unmarked),9.71
18,Cc1ccccc1C(=O)Oc1ccc(-c2csnn2)cc1,16
19,O=C(NCC1CCCN(Cc2nccs2)C1)c1cccc2ccccc12 (centres unmarked),0.477
20,COC(=O)c1cc(S(=O)(=O)N(C)c2ccc(C)c(C)c2)c[nH]1,-20.2
21,O=C(Cc1cccs1)N1CCN=C1SCc1ccccc1F,-11.5
22,CN/C(=C/[N+](=O)[O-])NCCSCc1csc(CN(C)C)n1,-11.8
23,CCCCc1nc(SCC(=O)Nc2nnc(C(C)C)s2)n[nH]1,8.79

row,Compound,"hERG current change (%, negative = inhibition) at 10uM [%]"
1,O=C(NNC(=S)NC(=O)c1ccc(Br)cc1)c1cccc([N+](=O)[O-])c1,13.4
2,CSc1ccccc1NC(=O)COc1ccc(Cl)cc1C,-1.99
3,C#CC(C)(CC)NC(=O)Cn1nnc(-c2ccc(S(C)(=O)=O)cc2)n1 (centres unmarked),1.02
4,Cc1cc(N2CCCCCC2)n2nc(C)c(-c3ccccc3)c2n1,22.9
5,C=CCNC(=S)NNC(=O)C(CCCC)CC(C)(C)O (centres unmarked),7.54
6,O=C(CSc1n[nH]c(-c2ccccn2)n1)Nc1ccc(Cl)cc1,-3.48
7,Cc1c(Cl)cnc(NC(=O)COC(=O)[C@H](C)NC(=O)c2ccccc2)c1Cl,-22.5
8,COC(=O)CSc1cc(C(F)(F)F)nc(-c2ccccn2)n1,-0.703
9,CCOC(=O)C1=C(C)NC(C)=C(C(=O)OCC)C1C(=O)OCC(=O)N1CCCCC1CC (centres unmarked),2.53
10,COCCCNC(=S)Nc1cc2oc3ccccc3c2cc1OC,6.08
11,C(=C\c1ccccn1)/c1ccncc1,18.2
12,Cc1nn(CC(O)Cn2c3c(c4ccccc42)CCN(C)C3=O)c(C)c1Br (centres unmarked),-17.5
13,CC(C)(C)c1ccc(/C=C(\C#N)C(=O)NCCN2CCOCC2)cc1,-19.5
14,Cn1c(=O)cc(OCC(=O)NCCC2=CCCCC2)c2ccccc21,-10.3
15,O=C(NC12CC3CC(CC(C3)C1)C2)N1CC2Cc3cccc(=O)n3C(C2)C1 (centres unmarked),5.29
16,Cc1ccc(NC(=O)COC(=O)CCc2ccccc2)c(Cl)c1,27.1
17,CCOC(=O)c1cc(/C(C)=N/OC(=O)c2ccc(C(C)(C)C)cc2)on1,14.7
18,COc1ccc(Nc2cc(Cl)nc(N)n2)cc1,20
19,CCCCNC(=O)CN1C(=O)NC2(CCCc3ccccc32)C1=O (centres unmarked),0.44
20,C/C(=N\NC(=O)c1nnn(-c2nonc2N)c1-c1ccc2c(c1)OCO2)c1cccs1,5.22
21,CCc1cc(C(=O)O)c(NC(=O)/C=C/c2ccc(OC)cc2)s1,11.8
22,CCOC(=O)c1cc([N+](=O)[O-])sc1NC(=O)CC,-18.9
23,CCOC(=O)Cn1c(=O)oc2cc(S(=O)(=O)N3CCCC(C(=O)OCC)C3)ccc21 (centres unmarked),-16

row,Compound,"hERG current change (%, negative = inhibition) at 10uM [%]"
1,CC(NS(=O)(=O)c1ccc(F)cc1)C(c1cccs1)N1CCOCC1 (centres unmarked),-5.18
2,CCOc1cc(C2C(C(C)=O)=C(O)C(=O)N2CCc2c[nH]c3ccccc23)ccc1O (centres unmarked),15.4
3,O=[N+]([O-])c1cccc(Nc2c3ccccc3nc3ccccc23)c1,-11.5
4,O=Cc1ccc(N2CCCCCC2)cc1,-0.897
5,CCC(C)(C)NC(=O)CN(C(=O)CNS(=O)(=O)c1ccc(C)cc1)c1ccc2c(c1)OCCO2,-5.52
6,Cn1cnc(C(F)(F)F)c1-c1ccc([N+](=O)[O-])cc1,-20.3
7,CCC(=NCCN1CCOCC1)c1c(O)n(C2CCCCC2)c(=O)[nH]c1=O,-6.76
8,COc1ccccc1/C(C)=N/NC(=O)c1nnn(-c2nonc2N)c1C(C)C,-7.98
9,Cc1ccc2[nH]c(CCN(C)C)c(CN3CCOCC3)c2c1,-2.2
10,CCN(CC)C(=O)c1sc2nc(-c3ccccn3)[nH]c(=O)c2c1C,-2.72
11,CC(=O)c1cc(C#N)c(N2CCCCC2)nc1C,-3.14
12,COc1cccc(CN2CCN(Cc3[nH]c4ccccc4c3C)CC2CCO)c1 (centres unmarked),-60.5
13,COc1ccccc1N1CCN(CCCNC(=O)Cn2ncc3c([nH]c4ccccc43)c2=O)CC1,-68.6
14,CC(C)c1ccc(S(=O)(=O)N2CCN(CC(=O)Nc3ccc(Cl)cc3F)CC2)cc1,-15.9
15,COC(=O)c1ccccc1S(=O)(=O)N(CCCO)Cc1cc2c(C)ccc(C)c2[nH]c1=O,-14.6
16,Cn1c(CN2CCN(S(C)(=O)=O)CC2)nc2cc([N+](=O)[O-])ccc21,-0.37
17,Cc1ccc(C)c(NC(=O)CSc2ccc(-c3cccs3)nn2)c1,0.0898
18,CC(C)CN(C(=O)COC(=O)c1ccccc1SCC(=O)NC1CCCCCC1)C1CCS(=O)(=O)C1 (centres unmarked),-0.144
19,Cc1ccc(-n2nc3c(=O)n(CCCC(=O)NCCN4CCN(C)CC4)nc(C)c3c2C)cc1,16.8
20,Cc1ccnc(NC(=O)c2cccc(S(=O)(=O)N3CCCc4ccccc43)c2)c1,-1.95
21,CCCOc1ccccc1-n1sc2c(c1=S)-c1cc(OC)cc3c1N(C(=O)C3=O)C2(C)C,18.5
22,O=C(NC(=O)c1ccc(F)cc1)Nc1nc(-c2cccs2)cc(C(F)(F)F)n1,12.2
23,COc1ccc(NC(=O)C(=O)NNC(=O)c2ccc(Cl)cc2Cl)cc1,2.27

row,Compound,"hERG current change (%, negative = inhibition) at 10uM [%]"
1,Cc1ccc(C(=O)Nc2ccc(S(=O)(=O)N3CCCC3)cc2)s1,12.8
2,C/C=C/C=N/Nc1nc(-c2ccc([N+](=O)[O-])cc2)cs1,-7.25
3,Cc1cccc(CN2C(=O)N/C(=C/c3cc(C)n(-c4ccccn4)c3C)C2=O)c1,8.39
4,Cc1cccc(S(=O)(=O)NCCC(=O)OC(C)C(=O)NC(=O)NC2CCCCC2)c1 (centres unmarked),-20.8
5,c1coc(-c2cc(C3CCNCC3)[nH]n2)c1,15.5
6,CC(=O)c1c(C)[nH]c(C(=O)CSc2nnc(C3CCCCC3)n2N)c1C,-1.29
7,CCOc1ccccc1C(=O)N[C@H](C(=O)NCc1ccccc1)C(C)C,12.7
8,CC(NC(=O)COC(=O)c1ccc(N(C)C)cc1)c1ccccc1 (centres unmarked),3.44
9,COc1ccc(OC)c(-c2nnc(NC(=O)C(C)Sc3nncn3C)s2)c1 (centres unmarked),3.38
10,COC(=O)CNC(=O)c1ccc(C)s1,-0.614
11,C/C(=N\NC(=O)OC(C)(C)C)c1cccc([N+](=O)[O-])c1,-11.3
12,CN(c1ccccc1)S(=O)(=O)c1cc(Cl)ccc1Cl,-17.7
13,COc1ccc(NC(=O)C2=CC(c3ccc(OC)c(OC)c3)=NS(=O)(=O)N2C)cc1,-4
14,O=C1CC(N2CCC(O)CC2)C(=O)N1c1ccc(Br)cc1 (centres unmarked),-6.28
15,CC(=O)c1sc(Nc2nc3ccc(F)cc3s2)nc1C,8.71
16,NCC(=O)N1CCC(C(=O)N[C@@H](Cc2c[nH]c3ccccc23)C(=O)O)CC1,23.6
17,Oc1ccc(C2=NN(c3ccccc3)C(c3ccc(F)cc3)C2)cc1 (centres unmarked),3.99
18,Cc1cc2cc(CNC(=O)c3ccc4c(c3)OCO4)ccc2n1C,12.9
19,COCCc1nnc(NC(=O)Cc2ccccc2)s1,4.67
20,O=C(CCCN1C(=O)c2cccnc2C1=O)N1CC(=O)N(CCc2ccccc2)C(=O)C1,-9.44
